Laboratory results as given in the supplement of paper PMC4466236.
Over roughly 33,000 sequences, “E-score (dimensionless, -0.5 to 0.5)” has its median near -0.058; the highest 2% begin near 0.35. The list shows a part of the results.

Test system: MvaT
Experiment: PBM 8-mer E-score (mean of HK and ME arrays) (E-score (dimensionless, -0.5 to 0.5)); higher = stronger relative binding preference; most listed sequences are background and not binding sites
In short: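 Full-length P. aeruginosa MvaT carrying an N-terminal glutathione S-transferase tag was tested by protein binding microarray following a previously described protocol. Two universal double-stranded 60-mer arrays, ME and HK, were used, each with a constant 25-mer primer region and a variable 35-mer region covering all 8-mers. The rank-based E-score is the mean of the two arrays, parsed with a custom script. Its range runs from -0.5 to 0.5 for each 8-mer.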

Sequence | PBM 8-mer E-score
GTCCATCA | -0.141
GTAAGGCA | -0.0576
AGGTCCCG | -0.203
ACCCCCTC | -0.368
CCATGGTC | -0.233
GACAACTC | -0.0737
ATGGCGAA | -0.00947
ATGCAGAG | -0.177
GGCTGAGA | -0.205
AAAAACAA | 0.255
CGTCCTCA | -0.231
CAAGACTC | -0.137
CCGGTCAA | -0.0838
CGGCACCC | -0.287
CATCGCGA | -0.0482
CGACGTGA | -0.0792
ATCTCAAG | 0.0032
AGGCTTGA | -0.168
GGAGGAAC | -0.236
CGGTCAAA | -0.0553
ATAAGGCG | 0.072
AGCTCAAA | -0.0057
ACTTGAAT | 0.174
ACCAGCCG | -0.019
CGTAGTCA | -0.0136

Sequence | PBM 8-mer E-score
TACAGAAA | 0.0518
CGACCTCC | -0.209
CAGGTGGC | -0.296
ATAGTTGC | 0.231
CCTCAGTA | -0.187
AATCATTA | 0.311
CCAGTTCA | -0.0519
GAGGATAC | -0.068
GATCGGGA | -0.107
CTAAATAG | 0.102
AGTCAATG | -0.0492
CGTAGTAC | -0.0198
AGGGGAAG | -0.153
CCTGTGTC | -0.169
CTGCATCA | -0.0868
CCGCTCAA | -0.0312
GCCTCCGA | -0.342
ATCAGCGC | -0.132
AGACACTG | -0.178
ATATACAC | 0.336
AACAACGG | 0.0601
AAAGGGGT | -0.0534
CCTACTTC | 0.0204
AGGAGTGC | -0.205
GAAACCTC | -0.246

Sequence | PBM 8-mer E-score
AGATGAGG | -0.214
CCCTCAAC | -0.0409
CGATATCG | 0.128
CAGGTAAC | -0.0745
CGTATCTA | 0.0267
ACAGAAAC | 0.0564
AATGCCCT | -0.161
ATCTGACA | 0.0827
AGCTCTCG | -0.164
CCATGTAG | -0.0553
CTAGAAAC | -0.0163
GGTGCCGA | -0.235
ACGGTCGG | -0.0606
TGATCGCA | -0.0798
AAGAAAGA | 0.0937
CGGTAATA | 0.246
CTCGGGTC | -0.203
AGGAGGCC | -0.25
GAATATAA | 0.38
ATAGCTTC | -0.0344
GATACTAC | 0.0306
CCCAAAGC | -0.239
TTACGAAA | 0.124
AAGCCATT | 0.0159
AACTATTG | 0.295

Sequence | PBM 8-mer E-score
AGTAACCC | -0.0792
AGTAGGCA | -0.144
ACGACTCG | -0.114
TCACGACA | -0.105
CCTCTCCG | -0.271
AGTGACAA | -0.0902
AACGGAAT | 0.149
ACAGCCGA | -0.11
AGCCTTTG | -0.166
CGAGCACA | -0.0578
GAATGTAA | 0.232
CGCGCTAA | 0.126
AAACATTC | 0.253
GGCGGATA | -0.0643
AGATTAGG | -0.0113
GCCAACCA | -0.114
CGTGCGTA | -0.0579
AGCCGGAA | -0.24
ATTCCAAC | 0.162
GCCCGGCC | -0.376
ACGTAGCA | -0.0174
AAGGTTAA | 0.172
CGACGACC | -0.229
CGCCTTCC | -0.328
AGGGGGCC | -0.286

Sequence | PBM 8-mer E-score
GCAGATCC | -0.0984
CCACATTC | 0.134
TGACCTAA | -0.0132
AGGTGACT | -0.173
CTTTCCGC | -0.0248
CATTAGCA | -0.00352
ATGGGCGG | -0.157
AATAATTA | 0.463
AAGTATGG | 0.205
ATTAGTAC | 0.245
ATCCTGTG | -0.0959
GATAGACA | -0.141
CCAGTCGG | -0.277
CCCAATAG | -0.0152
AGCGTTTC | -0.105
GCGTCCGA | -0.208
GGTAGGTA | -0.0424
CTAAGATC | -0.206
TCGTGCAA | 0.0759
CGCATGAC | -0.169
CCTCTCTC | -0.114
AGTGTCTG | 0.0186
ACTGATGC | -0.116
CATAATCA | 0.227
CCGGCTTC | -0.194

Sequence | PBM 8-mer E-score
GAGGGTGC | -0.16
AAGTTGAT | 0.217
AAGCTTCG | -0.091
ACTTATTC | 0.229
ACCCGGTC | -0.399
ACTCAAAT | 0.221
ACAACAAC | 0.216
GACTTAAC | 0.128
ACGCTGTG | -0.182
ATATGATA | 0.252
TCAGAGCA | -0.128
GCACGGCA | -0.155
AAATTCCA | 0.0973
GGGAGGTA | -0.274
ATAATATA | 0.475
ATCACGTG | 0.0846
CGCTCCAG | -0.173
GAGTGCGC | -0.264
AATTAATA | 0.449
CAACTTAC | 0.321
AGACACCC | -0.101
AATCAAGC | 0.0398
AGCCGCTA | -0.162
CATCAGGA | -0.132
AGGTGTCG | -0.122

Sequence | PBM 8-mer E-score
CTGGCCCA | -0.264
AAATGTTG | 0.173
TACATGGA | 0.0588
AGAATGCT | -0.213
GAAAAGTC | -0.098
AAGAGAGG | -0.27
ATTATTGA | 0.354
GAGCCTAC | -0.245
ATGAAACG | 0.121
CCCCGTAA | -0.11
CCAGCCAC | -0.0866
ACTTTAGG | 0.085
AAATCGAT | 0.246
GTCGGGCA | -0.105
ACCTAGAG | -0.136
AGTAGTTC | 0.141
CAAGCGCC | -0.172
CACAGGAC | -0.18
AGGGTTGC | -0.0957
ACCGGAAC | -0.0433
ACCCGTTG | -0.195
AGACGTTG | -0.186
CCTCTCAG | -0.269
GACTCCGC | -0.328
GGCGCTAA | -0.179

Sequence | PBM 8-mer E-score
CTTTGCAA | 0.104
CATCCAAA | 0.0181
CGTGCGAC | -0.193
TAGGACCA | -0.0983
CTCAATGA | -0.168
CCCCGTAG | -0.261
GGTTCTCA | -0.114
CACTTCGG | -0.16
AGTGGCAG | 0.0217
ATTATATG | 0.416
CCTCACGA | -0.194
TGCGAAAA | 0.0053
TAACATTA | 0.374
AGCAAAGC | -0.133
ACCTACCC | -0.0915
ATCTCACA | 0.072
CCAATATC | 0.194
GTCCGGGA | -0.138
ATAATTCC | 0.254
TAGTTTGA | 0.236
CTCGTACA | -0.139
CACTCGCG | -0.19
CGGGAATC | -0.107
GCTGGGCC | -0.277
TATTCACA | 0.285

Sequence | PBM 8-mer E-score
AGACGAGG | -0.231
AGTAATTA | 0.421
CCTCCTTA | -0.155
ACCTATGG | -0.149
CTATCCCA | -0.00164
GAGAAACC | -0.0829
AACCGGTG | -0.205
ACGTGTGA | -0.0633
ATAACGCC | 0.0177
ACTGTTCG | 0.0616
ATCGCGTA | 0.157
TAAACGTA | 0.198
AACTCTTC | -0.0929
AGACGCCG | -0.312
TAGGGATA | 0.00958
GAAGCCGA | -0.205
ACTTCAGA | 0.117
TAGCGCCA | -0.0897
CAACTGAG | -0.077
GACAACCA | -0.0943
CGGTCAAC | -0.039
CCCTCCGC | -0.368
AATACACA | 0.151
CGGCCCAC | -0.243
GGCATCGA | -0.213

Sequence | PBM 8-mer E-score
GGAATAAC | 0.219
ATGTGGAA | 0.13
CCTCTTAG | -0.0173
CTGGTTAA | 0.0777
CGTCGGGA | -0.113
CTGGTCGC | -0.276
ATTGGCAA | -0.063
GTAGCGGA | -0.158
TAGAGGAA | 0.0247
ATCACGCA | 0.008
AAAGCGCT | -0.0816
ACGCGGAT | 0.00563
ATTTCCCG | 0.119
CCTGTTAA | 0.167
ATAGAACA | 0.152
AAAGGTCT | -0.0713
AGAGTGTA | 0.135
CCGTGTTA | 0.054
ACCTTTAG | -0.137
ACTAAGGC | 0.0788
ATGTACTA | 0.156
CGTCACTA | -0.0977
CCAATCAG | -0.0636
AGCGGCAG | -0.217
CGGCCAAA | -0.0205

Sequence | PBM 8-mer E-score
GTCGATTA | 0.0975
TCACGTAA | 0.0784
CTGTTAAG | -0.0117
ATTGTTAA | 0.393
CACCGCTA | -0.0488
AGCAAGCA | -0.109
AACTGTGT | 0.00514
GCTTGACA | -0.183
TCCATGAA | -0.006
CGAGCAAC | -0.123
GGTTACCA | -0.288
ACGGCCAT | -0.108
GCCCCCGC | -0.248
GACGCTGA | -0.0905
GATGTGTA | 0.148
CCATTGGA | -0.171
CGACGGAC | -0.269
AAAATGAA | 0.226
CTTTGCGC | -0.00212
CATTTCGC | -0.0148
ATCAAGCG | -0.0474
AGATCTTA | 0.134
GCGCATTA | 0.0466
CCGACGGC | -0.119
CGTGATGC | -0.105

Sequence | PBM 8-mer E-score
CGGGATGC | -0.134
GTTACTCA | 0.0585
CTTGCGCA | -0.0318
CCTTAACG | -0.0169
AAATGCGG | 0.0213
CACCACCA | -0.0616
CGCTTACC | -0.0677
GCCACATA | -0.0576
ACAATGTG | 0.137
GTTTGAAA | 0.192
ACATGCGT | -0.186
CCTTATGA | -0.0312
GGAGCGCA | -0.0948
CAAGTTAC | 0.23
CCTTTCAG | -0.162
GGACAGAC | -0.171
CGCGACAC | -0.149
ATAGGCGG | -0.157
CGCTTCCA | -0.144
GTTTGGAA | 0.0376
ATTTTACC | 0.13
CGTGAGCA | -0.129
CAATACCG | 0.0309
ACTTCTCA | 0.0552
GACAGTGC | -0.0231

Sequence | PBM 8-mer E-score
CGAGGAAG | -0.174
AGTGCGTA | 0.0011
GAAGGATC | -0.274
ACCACGTA | -0.0477
GCGATTAA | 0.184
CGTGTCAA | -0.0234
CAGTCCCG | -0.241
CGTGCTAG | -0.222
GAGGCGTA | -0.211
AACTATAT | 0.349
AGTAGCTG | -0.0936
AAGATTTC | 0.0199
ACCATTTG | -0.00253
ATCATCTG | -0.0345
GAACTAAA | 0.338
AGCTTGAA | -0.0413
TCAGACCA | -0.188
CCTGGCAA | -0.122
GGCCTCGA | -0.176
AGCTCCAA | -0.128
AGGCGCGA | -0.0635
GCTTCCCC | -0.258
ATCAACCC | -0.0228
TCAAGGGA | -0.0771
ATTACCGC | 0.16

Sequence | PBM 8-mer E-score
GTCACTAA | -0.0591
CATTTCCG | -0.024
AAGGGTGC | -0.226
TAGTCTCA | -0.0252
ACCCCACA | -0.211
CTCGGAGC | -0.253
AACCTACT | -0.0157
CAAAAAGA | 0.17
CGTTAGGC | -0.238
ACCCAGAG | -0.187
CTACGACA | -0.167
CCCGCCAG | -0.144
AGAGTTCA | 0.0674
CATTTGGA | 0.0487
AACATATA | 0.419
AGGGCTGG | -0.312
CTAAGTTC | 0.232
GACCCGTC | -0.265
CGGGGGGA | -0.266
